# Measured values: PubChem BioAssay AID540317 (National Center for Advancing Translational Sciences (NCATS), 2011)
# The whole screen tested about 390,000 compounds, of which about 2,200 (0.56%) were called active. The inconclusive results got no clear call from the source; some entries with a clear call stand among them for comparison. Calls follow the shape of the dose curve; as a rule, active = well fitted inhibition curve with a large enough effect; inconclusive = small, poorly fitted or top-dose-only effect; inactive = no such curve, though single readings can be large or run the other way. Where the call is inconclusive, the potency comes from a doubtful curve fit.
# Target: Chromobox protein homolog 1 (Homo sapiens) (UniProt P83916)
# Test: HTS for Inhibitors of HP1-beta Chromodomain Interactions with Methylated Histone Tails; also: nearly all actives have a fitted effect of over 70% in size
# Conditions: AlphaScreen HP1-beta / biotin-H3K9me3 peptide binding; series mostly up to 114 µM; activity change, negative = inhibition: at the top concentration
# How it was run: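 HP1-beta protein (50 nM final) preincubated 30 min at room temperature with biotinylated H3(1-18)K9me3 peptide (50 nM) in PBS pH 7.4, 0.01% Tween-20, then compound added for 30 min. AlphaScreen streptavidin donor/nickel chelate acceptor beads (10 ug/mL final), 30 min dark, luminescence read.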
# Potency is read from the fitted curve at half-maximal effect; tags tell the direction and shape of the fitted curve.
# Sequence of UniProt P83916 (P83916 whole entry, looked up): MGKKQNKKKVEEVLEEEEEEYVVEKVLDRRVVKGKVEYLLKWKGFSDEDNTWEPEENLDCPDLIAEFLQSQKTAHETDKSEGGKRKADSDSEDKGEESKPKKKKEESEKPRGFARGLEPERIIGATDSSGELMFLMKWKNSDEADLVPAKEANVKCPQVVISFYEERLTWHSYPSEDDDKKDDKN
Structure (SMILES),"activity change, negative = inhibition",Potency
CC(=O)c1ccc(N2C(=O)Nc3ccccc3S2(=O)=O)cc1,inactive: 33.8%,–
O=C(O)CN1C(=O)/C(=C\c2cc(Br)ccc2OCc2ccc(F)cc2)SC1=S,–,"inconclusive: 39.8 µM [inhibitor, partial curve]"
CCn1ccnc1CN(C)Cc1cn(-c2cccc(C)c2)nc1-c1cccc(F)c1,–,"inconclusive: 31.6 µM [inhibitor, full curve]"
CCN(CC)C(=O)COc1ccc(-c2ccccc2)cc1,inactive: 33.1%,–
Cc1ccc([N+](=O)[O-])cc1NC(=O)Cc1cccs1,–,"inconclusive: 44.7 µM [inhibitor, partial curve]"
Cc1c(Cl)cccc1NC(=O)c1ccc(OCC(=O)NCc2ccccc2)cc1,inactive: 8.77%,–
Cc1cc(C)c(C)c(S(=O)(=O)N2C(=S)NC(=O)C2C(C)C)c1C (stereo unspecified),–,"inconclusive: 31.6 µM [inhibitor, single point]"
C/C(=N\Nc1nc2ccccc2[nH]1)c1ccc(N2CCOCC2)cc1,–,"inconclusive: 50.1 µM [inhibitor, partial curve]"
CCNc1c2c(nc3ccccc13)CC(C)(C)CC2=O,–,"inconclusive: 15.8 µM [inhibitor, partial curve, poor fit]"
O=S(=O)(Nc1ccc(Nc2ccccc2)cc1)c1ccc(F)cc1,–,"inconclusive: 70.8 µM [inhibitor, partial curve, poor fit]"
Cc1ccccc1NCc1ccc(O)c2ncccc12,–,"inconclusive: 1.26 µM [inhibitor, full curve]"
C=CCOC(=O)C1=C(C)NC(SCC(=O)Nc2ccc(C)c(Cl)c2)=C(C#N)C1c1ccco1 (stereo unspecified),inactive: 32.8%,–
COc1cc(OC)c(C=CC(=O)c2ccccc2O)c(OC)c1,–,active: 28.2 µM
COc1ccc(OC)c(CN2CCN(Cc3cccc4ccccc34)CC2)c1,–,"inconclusive: 12.6 µM [inhibitor, full curve, poor fit]"
Cc1ccc(-n2nc(C)c(C(=O)NCCCN3CCN(c4cccc(Cl)c4)CC3)c2-n2cccc2)cc1,inactive: -4.33%,–
O=C(/C=C/c1ccco1)N1CCN(c2ncccn2)CC1,inactive: 41.2%,–
O=[N+]([O-])c1ccc(-c2nc(-c3cccs3)c(-c3cccs3)[nH]2)cc1,–,"inconclusive: 50.1 µM [inhibitor, partial curve]"
Cc1nc2cc(NCc3nc4ccccc4n3Cc3ccccc3)ccc2n1C,–,"inconclusive: 25.1 µM [inhibitor, full curve]"
CCOC(=O)N1CCN(CC(O)COCC2=CCC3CC2C3(C)C)CC1 (stereo unspecified),–,"inconclusive: 25.1 µM [inhibitor, full curve]"
CCn1c(N)c(C(=O)NCC2CCCO2)sc1=S (stereo unspecified),–,active: 11.2 µM
c1ccc(Nc2cccc(Nc3ccccc3)c2)cc1,–,active: 39.8 µM
CC(C)C1Nc2ccc(C(=O)O)cc2C2C=CCC21 (stereo unspecified),–,"inconclusive: 70.8 µM [inhibitor, partial curve]"
Cc1ccc(-c2nn(-c3ccccc3)cc2C(=O)N2CCN(c3ccccn3)CC2)cc1,–,"inconclusive: 56.2 µM [inhibitor, partial curve, poor fit]"
O=C1NC(=S)S/C1=C\c1ccc(SCc2ccccc2)o1,–,"inconclusive: 31.6 µM [inhibitor, partial curve]"

Structure (SMILES),"activity change, negative = inhibition",Potency
Cc1cccc(C)c1NC(=O)C1CCCN1S(=O)(=O)c1cccc2nsnc12 (stereo unspecified),inactive: 38%,–
COc1ccc(NC(=O)Cn2nnc(-c3nc(-c4ccncc4)no3)c2N)cc1OC,inactive: 46.9%,–
COc1ccc(N2CCN(C(=O)Cc3ccc(S(=O)(=O)N4CCOCC4)s3)CC2)cc1,–,active: 50.1 µM
O=C(COC(=O)CC1CC2CCC1C2)Nc1ccccc1[N+](=O)[O-] (stereo unspecified),–,"inconclusive: 50.1 µM [inhibitor, partial curve]"
CCOc1ccccc1CNC(=O)c1cc2occc2n1C,–,"inconclusive: 17.8 µM [inhibitor, full curve]"
CCC(=O)N1CCN(c2ccc(NC(=O)c3ccc([N+](=O)[O-])o3)cc2)CC1,–,"inconclusive: 79.4 µM [inhibitor, single point]"
COc1ccccc1-c1c(C(F)(F)F)oc2cc(OC(=O)c3ccc([N+](=O)[O-])cc3)ccc2c1=O,–,"inconclusive: 50.1 µM [inhibitor, partial curve]"
Cc1ccc(NC(=O)CCCCCC2NC(=O)NC2C)cc1 (stereo unspecified),–,active: 1.12 µM
Cc1cccc(C)c1OCCCCN1CCCCC1,–,"inconclusive: 31.6 µM [inhibitor, partial curve]"
O=C(NCC1CCCO1)c1ccc2c(=O)n(Cc3cccc(Br)c3)c(=S)[nH]c2c1 (stereo unspecified),inactive: 15.8%,–
CCNC(=S)N(Cc1ccco1)Cc1cc2cc(OCC)ccc2[nH]c1=O,inactive: 11.3%,–
O=C(Nc1nc2c(F)cc(F)cc2s1)C1CCN(C(=O)c2ccc(F)cc2)CC1,inactive: 2.03%,–
CCc1c(C)sc(NC(=O)c2cccs2)c1C(N)=O,–,"inconclusive: 28.2 µM [inhibitor, single point]"
Cn1c(N)c(NC(=S)NC2CCCCC2)c(=O)n(C)c1=O,inactive: 12.3% [at 57 µM],–
CN(c1ccccc1)S(=O)(=O)c1cccc(C(=O)NCCc2ccc(O)c(O)c2)c1,–,"inconclusive: 79.4 µM [inhibitor, single point]"
COc1ccc2oc(=O)c(C(=O)NCCc3c(C)[nH]c4ccc(C)cc34)cc2c1,–,"inconclusive: 35.5 µM [inhibitor, partial curve, poor fit]"
COc1cc(-n2nc(C)c3c2OC(N)=C(C#N)C3c2ccccc2)c(Cl)c(Br)c1O (stereo unspecified),–,active: 44.7 µM
CCOC(=O)C1CCCN(CC(=O)NC2CC2)C1 (stereo unspecified),–,active: 17.8 µM
CC(C)C1CC(CCNCc2ccc(N(C)C)cc2)(c2ccccc2)CCO1 (stereo unspecified),–,"inconclusive: 50.1 µM [inhibitor, partial curve, poor fit]"
CC(=O)c1c(C)[nH]c(C(=O)N2CCCCCC2)c1C,–,"inconclusive: 7.08 µM [inhibitor, single point]"
COc1ccc(CNCCC(c2ccc(C)cc2)c2ccco2)cc1 (stereo unspecified),–,"inconclusive: 12.6 µM [inhibitor, full curve]"
CCOC(=O)c1nc(Nc2ccc(Nc3ccccc3)cc2)c2ccccc2n1,–,"inconclusive: 12.6 µM [inhibitor, full curve, poor fit]"
Cc1ccc(NC(=O)c2cc(N3C(=O)C=CC3=O)ccc2N2CCOCC2)cc1Cl,–,"inconclusive: 20 µM [inhibitor, full curve, poor fit]"
CC1CN(C2CCN(C(=O)COc3ccccc3)CC2)CC(C)O1 (stereo unspecified),–,"inconclusive: 22.4 µM [inhibitor, partial curve]"

Structure (SMILES),"activity change, negative = inhibition",Potency
CCN(C(=O)COC(=O)c1cc(NS(=O)(=O)c2ccc(Cl)c([N+](=O)[O-])c2)ccc1O)C1CCCCC1,–,"inconclusive: 25.1 µM [inhibitor, single point]"
Cc1ccc(C(C)C)cc1OCC(=O)Nc1ccc(N2CCCCC2)cc1,–,"inconclusive: 28.2 µM [inhibitor, full curve]"
Cc1ccc(S(=O)(=O)/N=C2\C=C(Nc3ccc(O)cc3)C(=O)c3ccccc32)cc1,–,active: 12.6 µM
Cc1cccc(NC(=O)CCC(=O)N/N=C/c2cc([N+](=O)[O-])ccc2O)c1,–,"inconclusive: 35.5 µM [inhibitor, single point]"
CCC(=O)Nc1ccccc1Oc1ccccc1,–,"inconclusive: 39.8 µM [inhibitor, single point]"
O=C(Cn1cc(S(=O)(=O)Cc2cccc(Cl)c2)c2ccccc21)Nc1ccccc1Cl,inactive: 21.5%,–
Cc1ccccc1N(C(=O)CS(=O)CC(=O)Nc1ccc(F)cc1)C(C)C(=O)NC(C)(C)C (stereo unspecified),–,"inconclusive: 89.1 µM [inhibitor, partial curve, poor fit]"
COc1ccc(CCNCC(O)COc2cccc(C(C)=O)c2)cc1OC (stereo unspecified),–,"inconclusive: 35.5 µM [inhibitor, partial curve]"
COc1ccc(C2=C(N3CCN(c4cccc(C)c4)C(C)C3)c3ccccc3C2=O)cc1 (stereo unspecified),–,"inconclusive: 4.47 µM [inhibitor, full curve, poor fit]"
Cc1ccccc1/C(N)=N/OC(=O)N1c2ccccc2Sc2ccccc21,–,"inconclusive: 15.8 µM [inhibitor, full curve, poor fit]"
COc1cccc(C=NN2CCCCCC2)c1OC,–,"inconclusive: 50.1 µM [inhibitor, partial curve, poor fit]"
O=C(Nc1ccc(Cl)cc1)N1CCCN(c2ccc(C(F)(F)F)cc2[N+](=O)[O-])CC1,–,"inconclusive: 44.7 µM [inhibitor, partial curve, poor fit]"
Cc1ccc(OCC(=O)N/N=C\c2cccn2C)c([N+](=O)[O-])c1,–,"inconclusive: 50.1 µM [inhibitor, partial curve]"
CCc1ccc(OCCCCCn2ccnc2)cc1,–,active: 56.2 µM
CCCc1cc(=O)[nH]c(SCC(=O)NCCN2C(=O)CSC2=O)n1,inactive: 17.4%,–
CCCS(=O)(=O)N1CCN(Cc2ccccc2OCC)CC1,–,"inconclusive: 20 µM [inhibitor, partial curve, poor fit]"
O=C(CN1C(=O)c2ccccc2C1=O)Nc1ccccc1,inactive: 25.7%,–
CC(=O)c1ccc(OCC(=O)OCC(=O)Nc2sccc2C(N)=O)cc1,inactive: 39.5%,–
COc1ccc(-c2ccc(SCC(=O)c3ccccc3)nn2)cc1OC,inactive: 17.5%,–
COc1ccc(CNCCNC(=O)c2cccs2)cc1OC,–,"inconclusive: 35.5 µM [inhibitor, partial curve]"
COC(=O)c1ccccc1NC(=O)CSc1nc(=O)cc(N)n1-c1ccccc1,inactive: 7.52%,–
COn1c(-c2ccccc2)nc2c1CCc1c-2no[n+]1[O-],inactive: 19.1%,–
O=[N+]([O-])c1ccc(O)c(Nc2ncnc3ccc(Br)cc23)c1,–,"inconclusive: 79.4 µM [inhibitor, single point]"
